Experimental data from the BET-seq Pho4 binding data (Le et al. 2018).
This is one part of the list. Values were computed here from the reads of four pooled replicates and scatter widely.

target: T1, Pho4 (S. cerevisiae) (UniProt P07270); test: relative binding free energy (BET-seq); higher = weaker binding; conditions: reference: library average
T1 sequence: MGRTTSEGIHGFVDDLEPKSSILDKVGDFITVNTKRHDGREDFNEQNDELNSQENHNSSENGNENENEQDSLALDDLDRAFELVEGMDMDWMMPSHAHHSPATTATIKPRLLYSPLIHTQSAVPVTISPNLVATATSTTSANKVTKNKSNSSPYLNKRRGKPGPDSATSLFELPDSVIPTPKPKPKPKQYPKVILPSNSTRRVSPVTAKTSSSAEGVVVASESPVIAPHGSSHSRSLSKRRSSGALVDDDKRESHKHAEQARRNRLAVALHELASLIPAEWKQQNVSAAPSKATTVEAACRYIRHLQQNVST

Relative binding free energy, 0.11 kcal/mol:
GATAGCACGTGTGTAT
TTTACCACGTGTGAGT
GCGGTCACGTGGAGGT
TTGGTCACGTGCGATT
TGGTGCACGTGTGGAA

Relative binding free energy, 0.01 kcal/mol:
GAAGGCACGTGATGGA
TGTATCACGTGGTCTA
AAAAGCACGTGTGGAT
TATGTCACGTGCGCTG

Relative binding free energy, 0.3 kcal/mol:
AATAGCACGTGAATTT
TGCTTCACGTGCAGTT
TGTATCACGTGGTAAA
GGGTTCACGTGGTTGG

Relative binding free energy, 0.1 kcal/mol:
TGGATCACGTGCTGAG
TCTTACACGTGTATTA
TGCTTCACGTGTGCGG
GTGGCCACGTGGAGAG
TAAAACACGTGTATAT
CTTATCACGTGGCGTT
CGGGTCACGTGGCTGG

Relative binding free energy, 0.08 kcal/mol:
GGAGTCACGTGTGCGA
GGTAACACGTGTTTGG
ATTGACACGTGTTATG
AGCGTCACGTGTTGCG
TAACTCACGTGGTTTT

Relative binding free energy, 0.17 kcal/mol:
GTGGTCACGTGTTTAG
GTTATCACGTGTTAGT
GTTCACACGTGTGGTG
TAGGACACGTGTGGAT

Relative binding free energy, 0.28 kcal/mol:
TGATTCACGTGCTGGC
TTTCTCACGTGGTAAA

Relative binding free energy, 0.26 kcal/mol:
TCGGTCACGTGTGGGA

Relative binding free energy, 0.33 kcal/mol:
TTAGTCACGTGATTCG
CGCTTCACGTGTGTGA
GGGTTCACGTGGGTTC

Relative binding free energy, 0.25 kcal/mol:
TATTTCACGTGGTTAA

Relative binding free energy, 0.07 kcal/mol:
CATTGCACGTGTTGAT
TGGATCACGTGTCGTT
AGGGACACGTGAGGCT
ACGGTCACGTGGCGTT
ATAGACACGTGGAATG

Relative binding free energy, 0.05 kcal/mol:
GTTAGCACGTGGATTG
AGACACACGTGTTGGT

Relative binding free energy, 0.24 kcal/mol:
GGCGTCACGTGGATAA
AAGGACACGTGAGAGT
GTATTCACGTGACGTT
GTCTTCACGTGTTAGA
ATTTACACGTGACAGG
ACTTTCACGTGTGGCT

Relative binding free energy, 0.09 kcal/mol:
ATTGTCACGTGGCGTG
GTACTCACGTGGGTTA
TTGGACACGTGTGATA
TGGGTCACGTGGTATG
GTGGACACGTGGGAGG
ATCTACACGTGGTTTA
GTTCCCACGTGTTAGG

Relative binding free energy, 0.47 kcal/mol:
GGATTCACGTGTGATT
GGCTTCACGTGATTTT

Relative binding free energy, 0.35 kcal/mol:
ATTCTCACGTGTTCTG
GGGCTCACGTGGATGT
AGCTTCACGTGCGTTT

Relative binding free energy, 0.32 kcal/mol:
GGTTTCACGTGAGTGG
GTTTGCACGTGAGGTG
TATTTCACGTGTACAT

Relative binding free energy, 0.03 kcal/mol:
AATTGCACGTGTTCTA
TGATGCACGTGTTATT
GGTGGCACGTGATATC
TCGAGCACGTGTAGTA
TTATCCACGTGTAGGT

Relative binding free energy, -0.07 kcal/mol:
TAAGACACGTGGTCTT
CGAAACACGTGGGGGT
ATGGACACGTGGTATT
TGTTCCACGTGGTGTG

Relative binding free energy, 0.41 kcal/mol:
GGGTACACGTGAGAGT

Relative binding free energy, 0.42 kcal/mol:
AATAACACGTGAGTAT

Relative binding free energy, -0.2 kcal/mol:
ACGTGCACGTGGTGGT

Relative binding free energy, -0.18 kcal/mol:
ATAGCCACGTGGGTTG
AGACGCACGTGGGAGG
AGTGGCACGTGGATCG
ATAGGCACGTGATTTA

Relative binding free energy, -0.33 kcal/mol:
TATGGCACGTGGGCAG

Relative binding free energy, -0.12 kcal/mol:
TATGTCACGTGCTATT
AGGTGCACGTGTTAGT

Relative binding free energy, -0.11 kcal/mol:
TGAGCCACGTGTATGG
AGGTGCACGTGTCATA
CGTCGCACGTGGTAGT

Relative binding free energy, 0.14 kcal/mol:
TAGTACACGTGTATTT
TTTGTCACGTGTGCAT
ATTATCACGTGCTGTG
AGTATCACGTGTTTTT
GTAGTCACGTGGCGAG
GGAGGCACGTGAACGG

Relative binding free energy, 0.16 kcal/mol:
AGGGACACGTGAGGCA
GTATTCACGTGGGCAG

Relative binding free energy, 0.38 kcal/mol:
TTGTACACGTGAAAGG

Relative binding free energy, 0.06 kcal/mol:
AGAGTCACGTGGTTGA

Relative binding free energy, -0.06 kcal/mol:
TCAAGCACGTGTTGTT
TTGAGCACGTGTAAAT
AGTGCCACGTGAGGGG
TGGTGCACGTGCGGGT
AGTGTCACGTGCGATT

Relative binding free energy, -0.21 kcal/mol:
TTAAGCACGTGCGGGG

Relative binding free energy, 0.29 kcal/mol:
TATTTCACGTGTAGGG
GTGATCACGTGATGGC
CGTTTCACGTGATAAT
AGAATCACGTGCGTGT

Relative binding free energy, 0.19 kcal/mol:
CTGATCACGTGCTTGG

Relative binding free energy, 0.27 kcal/mol:
ATTGTCACGTGAGAAT
GTTCTCACGTGTTGGT
TAGTACACGTGAAGAG
TTGTTCACGTGGCTGT
ATGTTCACGTGCATGC
CTATTCACGTGGTTAG
GTTTTCACGTGGCGTT

Relative binding free energy, 0.15 kcal/mol:
TGGATCACGTGTATGC
GGGGTCACGTGTTGTG
ATAGTCACGTGGAATT

Relative binding free energy, -0.24 kcal/mol:
GGGGGCACGTGCGCCG

Relative binding free energy, -0.13 kcal/mol:
CGGAACACGTGGAGTG
ATGTGCACGTGGTGTT
CGTGGCACGTGGACAG
GGGAGCACGTGGGATG
ACAAGCACGTGTGGTG
ATATGCACGTGGGTAA
TTCGGCACGTGGGGCG
TTTGACACGTGGCGGG
TTCTGCACGTGTATGT
AAAGGCACGTGTTGTT

Relative binding free energy, 0.21 kcal/mol:
TTTGTCACGTGAAGAG
ATAGTCACGTGTGGTA

Relative binding free energy, 0.2 kcal/mol:
CTGTTCACGTGTAGTT
ATTGTCACGTGTTTAC

Relative binding free energy, 0.04 kcal/mol:
TACAACACGTGTGGGG
TTATACACGTGCGGAG
GTCGTCACGTGGTGGA
AGTAACACGTGTGAGT
ATGGGCACGTGTGAGG
TGAAGCACGTGATAGT

Relative binding free energy, 0.02 kcal/mol:
GTAATCACGTGGGTTA
GGTGACACGTGGAGGA
TTGAGCACGTGTCGGA
TGTAGCACGTGTGATC

Relative binding free energy, 0.18 kcal/mol:
TGTATCACGTGACCGG
ATTTTCACGTGCCTTG
AGGGTCACGTGATCGC

Relative binding free energy, 0 kcal/mol:
GTGGGCACGTGTTTAT
ATAGTCACGTGCTTGG
GTGTGCACGTGCGTGG
ATTAGCACGTGTGTAG
GATAACACGTGGTGGA
ATAGGCACGTGAGGCA

Relative binding free energy, 0.12 kcal/mol:
TGGGTCACGTGTTTAG
TGTGTCACGTGTTGGA
ACGGGCACGTGAGTTT
AGAATCACGTGTGTGT
ATGAGCACGTGAAGGT

Relative binding free energy, -0.01 kcal/mol:
AGAGTCACGTGGAGAT

Relative binding free energy, -0.02 kcal/mol:
AGTCACACGTGGTGTT
AGATACACGTGTTTAT
TGGAGCACGTGGTTGG
TAGCGCACGTGTGGAA
TGTTGCACGTGATATA
GAGGACACGTGGGGGG
TGTTGCACGTGGCTAT
GTACTCACGTGGGCGT

Relative binding free energy, -0.03 kcal/mol:
GGGGACACGTGGCAAG
AATTACACGTGTGTAA

Relative binding free energy, -0.1 kcal/mol:
GGGAACACGTGCGTGT
AGGGGCACGTGATAGA
TTTAGCACGTGGGATC
AATTGCACGTGGCGAG

Relative binding free energy, -0.04 kcal/mol:
AGACGCACGTGTAGGT
GTTGGCACGTGGTTGT
TAGGACACGTGTGGTA
AGTGCCACGTGGCGCG
GCTGGCACGTGCTTTG

Relative binding free energy, 0.31 kcal/mol:
GAGTTCACGTGCGATG
GTTGGCACGTGAGAAT
TTTCTCACGTGAAGTG
TTGCTCACGTGAGTGT

Relative binding free energy, -0.09 kcal/mol:
TCAGGCACGTGGTGAG
CTAGGCACGTGTGGAT
CAGGGCACGTGCCGGG
TAGGACACGTGGTGTT
AGTCGCACGTGTTGGG
GGCGGCACGTGTTGAG

Relative binding free energy, -0.16 kcal/mol:
TATAGCACGTGGGAGA
TGAGCCACGTGGTTGG

Relative binding free energy, -0.14 kcal/mol:
TTCTGCACGTGCGTGT
ATTGGCACGTGCATCT
CGATGCACGTGGGGAG
AGTGGCACGTGTTCTG

Relative binding free energy, 0.13 kcal/mol:
TAAGTCACGTGTGAAT
AGTGACACGTGACGGT
TTACGCACGTGAGTTT
GTTAACACGTGATGTT

Relative binding free energy, 0.22 kcal/mol:
GTTATCACGTGTCTAG

Relative binding free energy, -0.25 kcal/mol:
ATGGGCACGTGGGAGC

Relative binding free energy, -0.22 kcal/mol:
GGGGGCACGTGGCCTT
ATGCGCACGTGGTAGA

Relative binding free energy, -0.32 kcal/mol:
TTACGCACGTGGTAGG

Relative binding free energy, -0.23 kcal/mol:
TATTGCACGTGCATGT

Relative binding free energy, -0.28 kcal/mol:
AAGGGCACGTGGGGGG

Relative binding free energy, -0.19 kcal/mol:
ATGGCCACGTGGGGTC

Relative binding free energy, -0.08 kcal/mol:
TTTGGCACGTGCCGAT
TCGCGCACGTGTTGGA
TAAGGCACGTGGCTTG
GGCAGCACGTGGGAAG
GTTAGCACGTGGTATG
AAGGTCACGTGGGTGA
GTTTCCACGTGGGGTA
TGTCGCACGTGTTTTG
TGGTGCACGTGGTGCT
AAGGGCACGTGTGTGG
TACTGCACGTGGCGTG

Relative binding free energy, 0.44 kcal/mol:
GGGCTCACGTGTGAAA

Relative binding free energy, -0.15 kcal/mol:
TAGAGCACGTGGGATT
GTAAGCACGTGGGGTA
GGTCGCACGTGGGTGC
AAGGGCACGTGGATGC
TGTAGCACGTGCGTTC

Relative binding free energy, -0.05 kcal/mol:
TAGGCCACGTGTCGGG
ACGATCACGTGGTGGG
GTGGCCACGTGCTTTG
ATTCGCACGTGCTTGG
CTGTACACGTGGTGTG
TTTGGCACGTGGCTGA
GATCGCACGTGGTGGG

Relative binding free energy, 0.23 kcal/mol:
AGTAACACGTGAGGTG
GATCGCACGTGTGTGA
